# Out of some 3,200 compounds screened, about 110 (3.4%) showed an effect of 50% or more. This is one part of the list.
# Test system: T1, V. cholerae SAD30
# T1 construct: SAD30
# Set-up: species or system S. aureus MSSA476 (TSB) or V. cholerae SAD30 (LB); 384-well bacterial growth screen at 25 uM, OD600 relative to DMSO control
# Details: relative growth, OD600, LB; 25 µM; inhibitor
row,SMILES,% of control remaining
1,"CCc1ccc(C(NC(=O)CCl)c2cccc(F)c2)cc1 (stereo not shown) [4-C20, 2-chloro-N-[(4-ethylphenyl)(3-fluorophenyl)methyl]acetamide]",106.448%
2,"CCc1ccc(NC(=O)C(C#N)=Cc2cccn2C)cc1 [8-A20, 2-cyano-N-(4-ethylphenyl)-3-(1-methyl-1H-pyrrol-2-yl)prop-2-enamide]",63.9701%
3,"C=CC(=O)NCc1cn(C(F)F)c2ccccc12 [2-F11, N-{[1-(difluoromethyl)-1H-indol-3-yl]methyl}prop-2-enamide]",90.9679%
4,"C=CC(=O)NCc1cn(-c2ccccc2)nn1 [2-I13, N-[(1-phenyl-1H-1,2,3-triazol-4-yl)methyl]prop-2-enamide]",76.1459%
5,"O=C(CCl)NC(C1CC1)C1CC1 [6-C22, 2-chloro-N-(dicyclopropylmethyl)acetamide]",100.711%
6,"CC(Cl)C(=O)NCCC1(CO)CC1 (stereo not shown) [7-H19, 2-chloro-N-{2-[1-(hydroxymethyl)cyclopropyl]ethyl}propanamide]",82.075%
7,"C=CC(=O)NCCS(=O)(=O)c1cccs1 [3-J17, N-[2-(thiophene-2-sulfonyl)ethyl]prop-2-enamide]",87.3259%
8,"N#CC(=Cc1ccc(O)c(O)c1)C(=O)Nc1cccc(Cl)c1Cl [8-F07, 2-cyano-N-(2,3-dichlorophenyl)-3-(3,4-dihydroxyphenyl)prop-2-enamide]",65.1937%
9,"O=C(CCl)NC1CCS(=O)(=O)c2ccc(F)cc21 (stereo not shown) [7-H06, 2-chloro-N-(6-fluoro-1,1-dioxo-3,4-dihydro-2H-1lambda6-benzothiopyran-4-yl)acetamide]",83.0002%
10,"COc1ccc(C=C(C#N)C(=O)Nc2ccc(C(=O)O)cc2)cc1O [9-F10, 4-[2-cyano-3-(3-hydroxy-4-methoxyphenyl)prop-2-enamido]benzoic acid]",92.5221%
11,"C=CC(=O)N1CCC(C(=O)N[C@H](C)c2ccc3c(c2)CCCC3)CC1 [3-P12, 1-(prop-2-enoyl)-N-[(1R)-1-(5,6,7,8-tetrahydronaphthalen-2-yl)ethyl]piperidine-4-carboxamide]",97.2064%
12,"CC(Cl)C(=O)NCC(NS(=O)(=O)N(C)C)C1CCCC1 (stereo not shown) [7-G16, 2-chloro-N-{2-cyclopentyl-2-[(dimethylsulfamoyl)amino]ethyl}propanamide]",80.2247%
13,"C=CC(=O)NCc1ncc(C)o1 [2-P21, N-[(5-methyl-1,3-oxazol-2-yl)methyl]prop-2-enamide]",106.253%

# — publication PMC11995724, “Antibiotic target discovery by integrated phenotypic and activity-based profiling of electrophilic fragments” (Cell chemical biology, 2025)
